Laboratory results from PubChem BioAssay AID686978 (National Center for Advancing Translational Sciences (NCATS), 2013).
Among all 420,000 compounds or so, about 64,000 (15%) were called active. This list was built around the results that the source calls inconclusive (neither active nor inactive); the mix of calls is not that of the screen. Calls follow the shape of the dose curve; as a rule, active = well fitted inhibition curve with a large enough effect; inconclusive = small, poorly fitted or top-dose-only effect; inactive = flat fitted curve, though single readings scatter. No potency is given beside an inconclusive call; the fits are too rough.

Test: qHTS for Inhibitors of human tyrosyl-DNA phosphodiesterase 1 (TDP1): qHTS in cells in absence of CPT; also: nearly all actives have a fitted effect of over 55% in size
Conditions: DT40 Tdp1-/- hTDP1 cells, no CPT, ATP luminescence, 48 h; activity change, negative = growth inhibition: at 46.2 µM (top of the series) unless noted
Method in brief: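 Seeded 400 DT40-hTDP1 cells/well (vehicle DMSO, no 20 nM CPT); pinned compounds; ≥48 hr at 37 °C; CellTiter-Glo luminescence as viability measure.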
% is scaled to controls: 0 for no effect and ±100 for the full control effect; potency is read from the fitted curve at half-maximal effect; tags tell the direction and shape of the fitted curve.

| SMILES | Potency | activity change, negative = growth inhibition |
| --- | --- | --- |
| CCOC(=O)COc1ccccc1C(=O)c1cnn(-c2ccccc2)c1 | inconclusive [inhibitor, partial curve] | – |
| Cn1c(=O)c2c(SCC(=O)N3CCc4ccccc43)nc(-c3ccccc3Cl)nc2n(C)c1=O | – | inactive: -1.99% |
| C#CCOCCOCCOCCNc1nc(N2CCOCC2)nc(N2CCN(C(=O)[C@H]([C@@H](C)CC)n3cc([C@@H](N)CC(C)C)nn3)CC2)n1 | inconclusive [inhibitor, single point] | – |
| COc1ccccc1-c1noc(-c2ccccc2C(=O)Nc2ccccc2)n1 | – | inactive: -24.9% |
| Cc1cc2c3c(cccc3n1)C(=O)c1ccccc1-2 | inconclusive [inhibitor, single point] | – |
| COc1cccc(/C=N/NC(=O)c2ccc(OCc3cccc(Br)c3)cc2)c1 | inconclusive [inhibitor, single point] | – |
| C=C(C)Cn1c(N2CC(C)CC(C)C2)nc2c1c(=O)[nH]c(=O)n2C (configuration not stated) | inconclusive [inhibitor, single point] | – |
| O=C(CSc1nnc(-c2ccc3c(c2)OCCO3)o1)N1CCCC1 | – | inactive: -8.36% |
| Cn1/c(=N/N=C/c2ccc(Cl)c([N+](=O)[O-])c2)sc2ccccc21 | inconclusive [inhibitor, partial curve, poor fit] | – |
| O=C(CC1C(=O)NCCN1Cc1ccc(-c2ccccc2)cc1)NC1CCC1 (configuration not stated) | active: 14.6 µM | – |
| Cc1nc(-c2ccccc2)sc1-c1ccc(SCC(=O)NCc2ccc(F)cc2)nn1 | – | inactive: -4.31% |
| CCOC(=O)Cn1nc(C)n(-c2ccc(F)cc2)c1=O | – | inactive: -17.4% |
| COc1ccc(C(=O)NCc2nnc(SCC(=O)N3CCc4ccccc43)n2Cc2ccccc2)cc1 | inconclusive [inhibitor, single point] | – |
| CCc1cccc(C)c1NC(=O)CN1C(=O)NC(C)(CCC(C)C)C1=O (configuration not stated) | – | inactive: -16.2% |
| CCCCOc1ccc(C(=O)NCC(=O)NCC(c2ccco2)N2CCCCC2)cc1 (configuration not stated) | – | inactive: -13.3% |
| CC(/C=C1\SC(=S)N(CCC(=O)Nc2ccc(O)cc2)C1=O)=C\c1ccccc1 | active: 18.4 µM | – |
| Cc1ccc(-c2ccc(=O)n(Cc3cc(C)ccc3C)n2)cc1 | active: 20.6 µM | – |
| OC(c1ccc(Cl)c(F)c1)c1ncc(-c2cccc(F)c2)[nH]1 (configuration not stated) | inconclusive [inhibitor, single point] | – |
| CCCc1cc(N2CCCC(C(=O)Nc3cc(Cl)ccc3OC)C2)n2ncnc2n1 (configuration not stated) | – | inactive: -17.2% |
| CN(Cc1ccccc1)C(=O)c1ccc(NC(=O)Cc2ccc(NC(=O)C3CCCN(C(=O)c4ccccc4)C3)cc2)cc1 (configuration not stated) | inconclusive [inhibitor, single point] | – |
| Cc1cc(=O)[nH]c2nc3ccccc3n12 | – | inactive: -4.6% |
| CCOC(=O)/C=c1/s/c(=C\c2c(OC)ccc3ccccc23)c(=O)n1CC(=O)NCC1CCCO1 (configuration not stated) | active: 25.9 µM | – |
| Cc1ccc(C)c(NC(=O)c2ccc3c(c2)N(Cc2ccc(F)cc2)C(=O)CS3=O)c1 (configuration not stated) | – | inactive: -26.8% |
| CC1=Nc2cc(C(=O)NCCc3ccc(Cl)cc3)ccc2Sc2ccc(C)cc21 | active: 6.51 µM | – |

| SMILES | Potency | activity change, negative = growth inhibition |
| --- | --- | --- |
| Cc1nc2sccn2c(=O)c1S(=O)(=O)NCC(C)c1ccccc1 (configuration not stated) | – | inactive: -15% |
| Cn1nc([N+](=O)[O-])nc1Sc1ccc(Cl)cc1 | inconclusive [inhibitor, partial curve, poor fit] | – |
| CN(C)c1ccc(C=C2c3ccccc3-c3ccccc32)cc1 | active: 22.4 µM | – |
| CC(=O)Nc1ccc(S(=O)(=O)NCCC(=O)N2CCC(Cc3ccccc3)CC2)cc1 | inconclusive [inhibitor, partial curve] | – |
| CCCOc1ccc(-c2nnn(CC(=O)N3CCCCC3)n2)cc1 | inconclusive [inhibitor, single point] | – |
| Cc1ccc(C(C)C)c(OCC(=O)Nc2cccc(NC(=O)c3ccco3)c2)c1 | active: 20.6 µM | – |
| Cn1nc(-c2ccccc2)c(-c2nc(-c3cccc(Cl)c3)no2)c1Cl | inconclusive [inhibitor, partial curve] | – |
| Cc1ccc(-n2c(C)n[nH]c2=S)cc1 | – | inactive: -13.8% |
| C(=N\C(/N=C/c1ccco1)c1ccco1)/c1ccco1 | inconclusive [inhibitor, single point] | – |
| CC1(C)CC(=O)C(=CN2CCOCC2)C(=O)C1 | – | inactive: -5.52% |
| COC(=O)c1cc(S(=O)(=O)NCc2ccc(F)cc2)cn1C | – | inactive: -4.8% |
| Cn1c(SCC(=O)NCc2ccco2)nnc1-c1ccc(NC(=O)c2ccccc2)cc1 | inconclusive [inhibitor, single point] | – |
| COc1cc(-c2cc(C(=O)Nc3ccncc3)c3ccccc3n2)cc(OC)c1OC | active: 1.3 µM | – |
| Cc1ccccc1-n1nc(C)c2cc(C(=O)N3CCN(S(=O)(=O)c4ccc(Cl)cc4)CC3)sc21 | inconclusive [inhibitor, partial curve] | – |
| Cc1ccccc1/C=C1\Oc2ccccc2C1=O | inconclusive [inhibitor, single point] | – |
| CC1Nc2ncnc(N3CCc4ccccc4C3)c2N(Cc2ccccc2)C1=O (configuration not stated) | inconclusive [inhibitor, single point] | – |
| CCOc1ccc(-n2c(CCC(=O)O)ccc2-c2ccc(Br)cc2)cc1 | inconclusive [inhibitor, single point] | – |
| O=C(CCCSc1nc2ccccc2[nH]1)Nc1nnc(C2CC2)s1 | inconclusive [inhibitor, single point] | – |
| C=C(C)c1cccc(C(C)(C)NC(=O)N(Cc2ccccc2)Cc2ccco2)c1 | active: 20.6 µM | – |
| O=C(CSc1nnnn1C1CCCC1)Nc1ccc2c(c1)OCO2 | – | inactive: -1.04% |
| Cc1ccc(C)n1-c1ccc(C(=O)/C=C/N(C)C)cc1 | inconclusive [inhibitor, single point] | – |
| COC(=O)c1c(C)[nH]c(C(=O)OCc2csc(CC(=O)Nc3ccccc3C)n2)c1C | – | inconclusive: -32% [inhibitor] |
| COc1ccc(CCNC(=O)CS(=O)Cc2nc(-c3ccccc3Cl)oc2C)cc1OC (configuration not stated) | inconclusive [inhibitor, single point] | – |
